According to the supplement of paper PMC12009370:
Some of the results follow. Repeats are few or missing, and single values can be far off.

How the values were obtained:
IMR-32 [1] = experiment: drug sensitivity score (DSS), single drug with vehicle (DSS (score)); higher = more cytotoxic; extreme values may be limits of the assay; settings: 72 h; co-treatment: vehicle (DMSO)
SK-N-AS [2] = experiment: as above; settings: 72 h; co-treatment: vehicle (DMSO)
SK-N-AS [3] = experiment: drug sensitivity score (DSS) in combination with SL-176 (DSS (score)); higher = more cytotoxic; extreme values may be limits of the assay; settings: 72 h; co-treatment: SL-176 11.2 uM (IC25 in IMR-32)
IMR-32 [4] = experiment: as above; settings: 72 h; co-treatment: SL-176 11.2 uM (IC25 in IMR-32)
SK-N-AS [5] = experiment: drug sensitivity score (DSS) in combination with GSK2830371 (DSS (score)); neuroblastoma lines; SL-176 and GSK2830371 are WIP1 inhibitors; higher = more cytotoxic; extreme values may be limits of the assay; settings: 72 h; co-treatment: GSK2830371 at IC25 in IMR-32
IMR-32 [6] = experiment: as above; settings: 72 h; co-treatment: GSK2830371 at IC25 in IMR-32
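For drug sensitivity score (DSS) in combination with GSK2830371 in this document: neuroblastoma cells in 384-well plates, each compound at five concentrations, luminescence read-out, DSS derived from fitted concentration-response curve combining IC50 with minimum and maximum inhibition.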
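For drug sensitivity score (DSS) in combination with SL-176 in this document: cells in 384-well plates, luminescence read-out, each screening drug at five concentrations, DSS derived from the fitted concentration-response curve combining IC50 with minimum and maximum inhibition.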
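For drug sensitivity score (DSS), single drug with vehicle in this document: 384-well screen with five concentrations per compound and a luminescence read-out, DSS computed from the fitted dose-response curve combining IC50 with minimum and maximum inhibition.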

Row | Structure (SMILES) | drug sensitivity score (IMR-32 [1]) | drug sensitivity score (SK-N-AS [2]) | drug sensitivity score (SK-N-AS [3]) | drug sensitivity score (IMR-32 [4]) | drug sensitivity score (SK-N-AS [5]) | drug sensitivity score (IMR-32 [6])
1 | Cn1cc(CNCC2CCN(c3ncc(C(=O)NO)cn3)CC2)c2ccccc21 [Quisinostat] | 23.1 | 18.9 | 17.3 | 23.2 | 19 | 23
2 | CCS(=O)(=O)N1CCN(c2ccc(Nc3ncc(C(N)=O)c(NC4CC4)n3)cc2)CC1 [Cerdulatinib] | 3.5 | 1.5 | 0.3 | 6.8 | 1 | 15.1
3 | O[C@H](C[C@H]1c2c(F)cccc2-c2cncn21)[C@H]1CC[C@H](O)CC1 | 0 | 1.1 | 0.2 | 0.1 | 1.6 | 0.1
4 | O=C(O)CCCCC(CCSCc1ccccc1)SCc1ccccc1 (stereo unspecified) | 0 | 0 | 0 | 0 | 0 | 0
5 | CO[C@@H](C(=O)N1Cc2[nH]nc(NC(=O)c3ccc(N4CCN(C)CC4)cc3)c2C1)c1ccccc1 [Danusertib] | 32 | 13 | 11.5 | 33.8 | 14.9 | 32.6
6 | CN(C(=O)c1ccc(F)cc1C(F)(F)F)C1CCN(c2nnc(-c3ccnn3C)c3ccccc23)CC1 [Taladegib] | 0 | 0 | 0 | 0 | 0 | 3.8
7 | O[C@H]1CC[C@H](Nc2ncc3nc(Nc4c(F)cc(F)cc4F)n([C@H]4CCOC4)c3n2)CC1 [Tanzisertib] | 0 | 0 | 0.2 | 0 | 0.7 | 0.2
8 | CN1C(=O)N[C@H](Cc2c[nH]c3c(Cl)cccc23)C1=O [Necrostatin 2] | 0 | 0 | 0 | 0 | 0 | 0
9 | O=c1sn(-c2cccc3ccccc23)c(=O)n1Cc1ccccc1 [Tideglusib] | 0 | 0 | 0 | 0 | 0 | 0
10 | O=C(Nc1ccc(OC(F)(F)Cl)cc1)c1cnc(N2CC[C@@H](O)C2)c(-c2cc[nH]n2)c1 [Asciminib] | 0 | 0 | 0 | 0 | 0 | 0.8
11 | Cc1cc(C(C)Nc2ccccc2)c2nc(N3CCOCC3)cc(=O)n2c1 (stereo unspecified) | 0 | 0.3 | 0.4 | 0 | 0.7 | 3
12 | C=CC(=O)N1CCC[C@@H](n2nc(-c3ccc(Oc4ccccc4)cc3)c3c(N)ncnc32)C1 [Ibrutinib] | 0 | 0 | 0 | 0 | 0 | 0
13 | CC(C)C[C@H](NC(=O)[C@H](CCc1ccccc1)NC(=O)CN1CCOCC1)C(=O)N[C@@H](Cc1ccccc1)C(=O)N[C@@H](CC(C)C)C(=O)[C@@]1(C)CO1 [Carfilzomib] | 33.4 | 27.6 | 29.2 | 30.5 | 29.2 | 32.3
14 | Nc1cc(COc2c(Cl)cc(C[C@H](N)C(=O)O)cc2Cl)c2oc(-c3ccccc3)nc2c1 | 0 | 0 | 0 | 0.6 | 0.2 | 0.1
15 | FC(F)c1nc2ccccc2n1-c1nc(N2CCOCC2)nc(N2CCOCC2)n1 | 8.9 | 10.7 | 10 | 7 | 10.2 | 10.3
16 | Cc1c(-c2ccc(N3CCc4cccc(C(=O)Nc5nc6ccccc6s5)c4C3)nc2C(=O)O)cnn1CC12CC3CC(CC(C3)C1)C2 | 7.8 | 0 | 0 | 9.4 | 0 | 6.9
17 | Cc1nc(C(=O)NCC(=O)O)c(O)c2ccc(Oc3ccccc3)cc12 [Roxadustat] | 0 | 0 | 0 | 0 | 0 | 0.1
18 | CNC(=O)c1nn(C)c2c1C(C)(C)Cc1cnc(Nc3ccc(N4CCN(C)CC4)cc3)nc1-2 [Milciclib] | 18.5 | 14 | 13.6 | 21.6 | 15.3 | 21.2
19 | CCn1c(-c2nonc2N)nc2cnc(Oc3cccc(NC(=O)c4ccc(OCCN5CCOCC5)cc4)c3)cc21 | 22.5 | 2.7 | 2.8 | 24.4 | 2.1 | 23.3
20 | Oc1ccc2c(c1)CC[C@H](c1ccccc1)[C@@H]2c1ccc(OCCN2CCCC2)cc1 [Lasofoxifene] | 0 | 0 | 0.6 | 0 | 1.3 | 0
21 | CN1CCC(COc2cnc(-c3cccc(Cn4nc(-c5cccc(C#N)c5)ccc4=O)c3)nc2)CC1 [Tepotinib] | 0 | 0.2 | 0 | 0.2 | 0 | 0
22 | Cn1cncc1[C@@](N)(c1ccc(Cl)cc1)c1ccc2c(c1)c(-c1cccc(Cl)c1)cc(=O)n2C [Tipifarnib] | 10.9 | 7.9 | 7.2 | 14.9 | 7.7 | 15.6
23 | Nc1nc2[nH]cnc2c(=S)[nH]1 [Thioguanine] | 8.3 | 10.9 | 10.8 | 9.7 | 10.3 | 15.9

Row | Structure (SMILES) | drug sensitivity score (IMR-32 [1]) | drug sensitivity score (SK-N-AS [2]) | drug sensitivity score (SK-N-AS [3]) | drug sensitivity score (IMR-32 [4]) | drug sensitivity score (SK-N-AS [5]) | drug sensitivity score (IMR-32 [6])
24 | CC(=O)O[C@]1(C(C)=O)CC[C@H]2[C@@H]3C=C(C)C4=CC(=O)CC[C@]4(C)[C@H]3CC[C@@]21C [Megestrol acetate] | 2 | 0 | 0 | 0 | 0 | 0
25 | Cc1[nH]c2ccccc2c1CCNCc1ccc(/C=C/C(=O)NO)cc1 [Panobinostat] | 23.7 | 18.9 | 17.8 | 24.2 | 18.7 | 24.9
26 | Nc1nc(OCc2cc(Br)cs2)c2[nH]cnc2n1 [Lomeguatrib] | 0 | 0 | 0 | 0 | 0 | 0
27 | CC[C@@]1(O)C(=O)OCc2c1cc1n(c2=O)Cc2cc3c(CN(C)C)c(O)ccc3nc2-1 [Topotecan] | 32.2 | 10.7 | 11.1 | 34.2 | 13.6 | 37.9
28 | CO[C@@]12[C@H](COC(N)=O)C3=C(C(=O)C(C)=C(N)C3=O)N1C[C@@H]1N[C@@H]12 [Mitomycin C] | 12 | 1.2 | 0.2 | 12.3 | 0.7 | 16.6
29 | COc1ccc2[nH]cc(/C=C3\C(=O)Nc4ccc(NC(=O)CCN5CCCCC5)cc43)c2c1 | 7.9 | 7.6 | 9 | 13.7 | 7.6 | 10.4
30 | C[C@]12CC[C@@H]3c4ccc(O)cc4C[C@@H](CCCCCCCCC[S+]([O-])CCCC(F)(F)C(F)(F)F)[C@H]3[C@@H]1CC[C@@H]2O (stereo partly specified) [Fulvestrant] | 0 | 0 | 0 | 0 | 0 | 0.3
31 | CC(C)n1cnc2c(NCCc3ccc(O)cc3)nc(-c3csc4ccccc34)nc21 [StemRegenin 1] | 0.8 | 1 | 1.6 | 0 | 0.8 | 2.7
32 | CCOc1ccn(-c2ccc(F)cc2)c(=O)c1C(=O)Nc1ccc(Oc2ccnc(N)c2Cl)c(F)c1 | 0 | 0 | 0 | 0 | 0 | 0.5
33 | O=C(CCNC(=O)c1ccc(OC(F)(F)F)cc1)N[C@@H]1CCCc2ccccc21 | 21.1 | 0.4 | 0.1 | 19.1 | 0 | 21.3
34 | Cn1ncc(Cl)c1-c1cc(C(=O)N[C@H](CN)Cc2cccc(F)c2)sc1Cl [Afuresertib] | 0 | 0.6 | 0.4 | 0 | 0.3 | 0
35 | CC[C@@H]1C(=O)N(C)c2cnc(Nc3ccc(C(=O)NC4CCN(C)CC4)cc3OC)nc2N1C1CCCC1 | 27.7 | 23.3 | 23.7 | 34.7 | 24.6 | 29.9
36 | CC[C@H](CC#N)OC(=O)N[C@@H](C)c1cccc(NC(=O)Nc2ccc(-c3cnco3)c(OC)c2)c1 | 25.8 | 13.4 | 16.8 | 26.7 | 17.2 | 28.9
37 | O=C(c1ccc(OCCN2CCCCC2)cc1)c1c(-c2ccc(O)cc2)sc2cc(O)ccc12 [Raloxifene] | 4.9 | 2.3 | 3.2 | 4.5 | 2.4 | 5.6
38 | CC(=O)c1c(C)c2cnc(Nc3ccc(N4CCNCC4)cn3)nc2n(C2CCCC2)c1=O [Palbociclib] | 9.5 | 10.8 | 9.3 | 4.8 | 10.7 | 8.4
39 | COc1ccc(-c2nc(N3CCOCC3)c3sc(CN(C)c4ncc(C(=O)NO)cn4)cc3n2)cn1 | 45.8 | 37.8 | 37 | 44.1 | 37.8 | 45.8
40 | Cn1cnc2c(F)c(Nc3ccc(Br)cc3F)c(C(=O)NOCCO)cc21 [Binimetinib] | 0 | 14.2 | 12.3 | 0 | 13.5 | 0
41 | Cc1cnc(-c2ccccc2C(C)C)nc1NCc1ccc(-n2ccnn2)cc1 | 0 | 0.1 | 0 | 1.8 | 0 | 3.9
42 | Cc1cc(Nc2nc(N[C@@H](C)c3ncc(F)cn3)ncc2Cl)[nH]n1 | 2.7 | 1 | 0.8 | 4.2 | 0.7 | 4.9
43 | Nc1nc(NC2CC2)cc(-c2cccc(Cl)c2Cl)n1 | 13.7 | 10.5 | 9.5 | 14.2 | 9.7 | 19
44 | C[C@@H]1CN(C(=O)c2ccc(NC(=O)c3cc(O[C@H](C)c4c(Cl)ccc(F)c4Cl)c(N)nn3)cc2)C[C@H](C)N1 [Ensartinib] | 5.5 | 1.8 | 3.4 | 6.8 | 1.8 | 4.1
45 | COCC[n+]1c2c(n(Cc3cnccn3)c1C)C(=O)c1ccccc1C2=O [Sepantronium bromide] | 42.2 | 37.2 | 36.7 | 44.7 | 37 | 42.1
46 | CC[C@@H]1[C@H](F)C(=O)N[C@@H]1COc1nccc2cc(C(N)=O)c(OC)cc12 | 1.9 | 1.8 | 3.2 | 3.4 | 1.7 | 3.4
